# Data published in patent US6730301.
# T1: MIP-1α/RANTES receptor (Homo sapiens (Human), UniProt P32246 1-355)
# T1 sequence: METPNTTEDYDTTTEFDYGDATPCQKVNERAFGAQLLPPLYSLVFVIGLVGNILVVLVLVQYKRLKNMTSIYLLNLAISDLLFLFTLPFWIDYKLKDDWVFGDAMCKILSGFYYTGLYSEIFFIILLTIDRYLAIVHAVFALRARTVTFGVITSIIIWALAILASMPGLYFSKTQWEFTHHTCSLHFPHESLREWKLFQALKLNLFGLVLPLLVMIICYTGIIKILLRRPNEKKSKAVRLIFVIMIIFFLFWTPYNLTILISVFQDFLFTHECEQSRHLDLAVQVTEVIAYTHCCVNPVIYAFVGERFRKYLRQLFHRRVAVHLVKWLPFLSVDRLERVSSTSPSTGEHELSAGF
# Target: T1, MIP-1α/RANTES receptor
# Experiment: cell-based or functional assay
binder,measurement,value
IL-8 (interleukin-8) (ligand) not shown,"IC50, Inhibition of Adenylyl Cyclase",> 1000 nM
